# Test results from ChEMBL document CHEMBL4888484, “Replenishing the malaria drug discovery pipeline: Screening and hit evaluation of the MMV Hit Generation Library 1 (HGL1) against asexual blood stage Plasmodium falciparum ,using a nano luciferase reporter read-out” (2022).
# Out of some 150,000 compounds screened, about 540 (0.36%) showed an effect of 50% or more. The list shows a part of the results.
# Test system: Plasmodium falciparum
# Test: Primary screen in NF54 nanoGlo assay, in single point, at 2uM, 72h; a lower Z score goes with more inhibition
# Type: functional, Erythrocyte
# Conditions: timepoint 72 hour
SMILES,% Inhibition [%],Z score
C=CC[C@H](CC)NC(=O)NCC(=O)Nc1ccccc1,10,-1.8
Cc1ccc(C(=O)N2CCC3(CCc4nn(Cc5ccccc5)c(=O)n4CC3)CC2)s1,-7,0.82
CC(C)n1ncnc1-c1ccc(C(=O)NCCc2nccs2)cc1,-4,0.63
COCCNC(=O)c1cc2cc(NC(=O)c3ccc(C)c(C)c3)ccc2n1Cc1ccc(F)cc1,0,0.09
CC(C)Cn1ncnc1CN1CCc2ccccc2[C@@H]1CO,6,-0.87
O=C(O)[C@H]1CC(=O)N(Cc2scnc2-c2ccccc2)C1,1,-0.18
O=C(CN(CC(=O)N1CCOCC1)S(=O)(=O)c1ccc(Cl)cc1)N1CCOCC1,2,-0.3
Cn1nc(-c2cccnc2)cc1C(=O)NC1(C(F)(F)F)CCCCC1,-20,2.49
Cc1ccc(Oc2nc(C)nc3c2CCCC3)cn1,-4,0.68
CCc1ccc(CCNC(=O)N(C)Cc2nc(C)c[nH]2)cc1,5,-1.01
O=C(COc1ccc(Cl)cc1)NCc1cn(-c2cccs2)nn1,14,-1.82
Cc1cc(-c2nc(C3CC3)nn2-c2ccccn2)on1,-19,2.2
COc1cc([C@@H]2c3c(-c4ccc(F)cc4)n[nH]c3C(=O)N2CCc2c[nH]c3ccccc23)ccc1O,-18,2.68
Cc1nn(-c2ccccc2)c(=O)n1CC(=O)NCCCn1ccnc1,-2,0.25
CC(C)c1noc([C@@H]2CCCN2Cc2ccccn2)n1,-6,0.67
COC[C@H](C)NC(=O)C(=O)Nc1ccc(OC)c(Cl)c1,1,-0.16
CC[C@H](OC)C(=O)N1CCC(c2ccc(F)c(F)c2)CC1,-11,1.06
COc1ccc(-c2cnc3ncnn3c2N2CCCCCCCC2)cc1,4,-0.62
CC(C)NC(=O)[C@@H]1C[C@@H](NCc2cc(F)ccc2F)CN1Cc1cccc(Cl)c1,6,-0.85
Cc1ccc(Cc2nc(N3CCN(C(=O)c4ccccc4F)CC3)c3c(C)nn(-c4ccccc4)c3n2)cc1,-1,0.23
Cn1ccnc1C1CC(NS(=O)(=O)c2cccc(Cl)c2O)CCO1 (stereo unspecified),-3,0.39
CCOc1ccc(NC(=O)Cn2c3c(c(=O)n2-c2ccccc2)Cc2ccc(OC)cc2O3)cc1,-6,0.66
CC(C)C(=O)NCCCNC(=O)NCC1(C)CCC1,-5,0.97
COc1cccc(OC)c1CN1CC[C@@]2(CCCN(C3CCCCC3)C2=O)C1,-9,1.21
CN1CCCCC[C@H]1C(=O)N1CCc2[nH]c(-c3ccc(F)cc3F)nc2C1,-7,1.28
Cc1c(C(=O)NCc2ccc(F)cc2)sc2ncnc(N(C)c3ccccc3)c12,-9,1.39
Cc1nc(C2(NC[C@@H](O)Cc3ccccc3)CCC2)no1,-14,1.41

SMILES,% Inhibition [%],Z score
COc1ccc(C(=O)N(C)CCc2noc(-c3cc4ccc(OC)cc4[nH]3)n2)c(C)c1,-10,1.91
Cc1ccc(S(=O)(=O)Nc2cc(C(=O)O)cnc2N2CCC[C@H](C)C2)cc1C,-3,0.35
Cc1cc(C)n([C@@H](C)CNC(=O)CCc2csc(N)n2)n1,-9,1
CN(Cc1nc2ccccc2c(=O)[nH]1)C(=O)c1ccc(N2CCCC2=O)cc1,38,-4.92
C[C@@H]1c2ccccc2CCN1C(=O)c1ccccc1F,-18,1.73
CC(=O)c1cn(CC(=O)N2CCNC(=O)C2)c2ccccc12,38,-4.31
CCN(CCC(=O)N(CC#N)CC#N)[C@@H](C)c1ccc(F)cc1,4,-0.53
O=C(c1c[nH]c2ccccc12)N1CCC(c2nnc(C3CC3)o2)CC1,-1,0.08
Cc1ccoc1C(=O)NC1CCN(c2nc3ccccn3c2C#N)CC1,-14,1.42
CC1CN(Cc2nc(N(C)C)no2)CC1N1CCOCC1 (stereo unspecified),4,-0.53
O=S(=O)(CCc1ccccc1)N1CCC(Oc2nncs2)CC1,-4,0.84
CN1C(=O)C[C@H](Nc2ccnc(C#N)n2)[C@H]1c1ccc(Cl)c(F)c1,-11,1.33
CCOc1ccc(NC(=O)Cn2c(C)nc3onc(C)c3c2=O)cc1,4,-0.75
CCN1CCN(c2ncc3c(n2)CCN(Cc2ccc(F)cc2)C3)CC1,0,-0.05
CN(C[C@H]1COc2ccccc2O1)C(=O)CCn1cccn1,0,-0.02
O=C(C[C@@H](c1ccsc1)n1cnnn1)Nc1cccc(O)c1,0,0.05
CC[C@@H](C(=O)Nc1nnc2nc(C)ccn12)n1cccn1,-9,1.58
O=C(NCC1CC1)[C@]1(F)CCCN(S(=O)(=O)c2ccc(Cl)s2)C1,-19,1.63
CCc1ncnc(N[C@H](CO)Cc2ccccc2)c1F,-3,0.39
O=C1CCC2CC1C(=O)N2Cc1ccccc1 (stereo unspecified),1,-0.17
O=S(=O)(c1ccc(OC2CCOCC2)c(F)c1)N(CC(F)F)C1CC1,8,-1.22
Cc1cc(F)cc2c(N3CCC(C)(C)S(=O)(=O)CC3)c(C#N)cnc12,-3,0.59
CCc1ccc(Cn2nc(CC(N)=O)nc2[C@H](C)O)cc1,-9,1.8
Cc1ccc(S(=O)(=O)NCc2nc3cccnc3n2C2CCCC2)cc1,7,-1.04
COC(=O)C1CCN(C(=O)COC(c2ccccc2)c2ccccc2)CC1,-11,1.56
CN(C)CCN(Cc1ccc(C#N)cc1)C(=O)[C@H]1CCCN(C(=O)c2ccc(F)cc2)C1,-1,0.2
